Source: US20260297081A1, “COMPOUNDS AND METHODS OF TREATING CANCERS” (Cullgen Inc., priority 2023, published 2026)
At least one read-out could not be matched to a standard name with certainty.

Columns and labels:
Format in all cases: cell-based
cyclin D1 = experiment: HiBiT detection of HiBiT-tagged cyclin D1 protein level in MCF7 cells, 16 hours (Table 8); conditions: MCF7 cells stably expressing HiBiT tagged target proteins
CyclinD1 (CCND1) = experiment: Cyclin D1 (CCND1) percentage degradation in Calu-1 cells (Table 6); conditions: 16 hours
CDK4 = CDK4 (Homo sapiens, UniProt P11802+Q16531); experiment: HiBiT detection of HiBiT-tagged CDK4 protein level in MCF7 cells, 16 hours (Table 8); set-up: expressed in transfected cells; host or cells: MCF7; conditions: MCF7 cells stably expressing HiBiT tagged target proteins
Sequence of CDK4 (P11802 whole entry): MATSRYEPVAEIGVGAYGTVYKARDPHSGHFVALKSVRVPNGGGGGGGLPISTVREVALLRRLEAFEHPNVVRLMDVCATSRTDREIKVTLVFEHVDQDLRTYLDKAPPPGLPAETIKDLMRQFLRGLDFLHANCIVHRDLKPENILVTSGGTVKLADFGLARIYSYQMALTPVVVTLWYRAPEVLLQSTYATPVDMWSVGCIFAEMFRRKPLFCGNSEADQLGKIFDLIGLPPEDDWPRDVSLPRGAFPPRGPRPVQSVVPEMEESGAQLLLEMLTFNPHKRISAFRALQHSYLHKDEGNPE
Sequence of CDK4 (P24385 whole entry partner): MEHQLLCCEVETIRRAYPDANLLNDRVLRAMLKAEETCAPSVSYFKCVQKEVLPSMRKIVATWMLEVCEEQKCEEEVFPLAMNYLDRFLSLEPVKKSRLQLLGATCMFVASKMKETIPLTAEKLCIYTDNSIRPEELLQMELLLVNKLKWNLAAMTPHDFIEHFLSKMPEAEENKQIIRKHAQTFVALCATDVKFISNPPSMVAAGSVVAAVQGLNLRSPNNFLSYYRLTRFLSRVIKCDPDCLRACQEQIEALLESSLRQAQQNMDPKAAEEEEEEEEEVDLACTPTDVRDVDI
Sequence of CDK4 (Q16531 2-1140 limits assumed): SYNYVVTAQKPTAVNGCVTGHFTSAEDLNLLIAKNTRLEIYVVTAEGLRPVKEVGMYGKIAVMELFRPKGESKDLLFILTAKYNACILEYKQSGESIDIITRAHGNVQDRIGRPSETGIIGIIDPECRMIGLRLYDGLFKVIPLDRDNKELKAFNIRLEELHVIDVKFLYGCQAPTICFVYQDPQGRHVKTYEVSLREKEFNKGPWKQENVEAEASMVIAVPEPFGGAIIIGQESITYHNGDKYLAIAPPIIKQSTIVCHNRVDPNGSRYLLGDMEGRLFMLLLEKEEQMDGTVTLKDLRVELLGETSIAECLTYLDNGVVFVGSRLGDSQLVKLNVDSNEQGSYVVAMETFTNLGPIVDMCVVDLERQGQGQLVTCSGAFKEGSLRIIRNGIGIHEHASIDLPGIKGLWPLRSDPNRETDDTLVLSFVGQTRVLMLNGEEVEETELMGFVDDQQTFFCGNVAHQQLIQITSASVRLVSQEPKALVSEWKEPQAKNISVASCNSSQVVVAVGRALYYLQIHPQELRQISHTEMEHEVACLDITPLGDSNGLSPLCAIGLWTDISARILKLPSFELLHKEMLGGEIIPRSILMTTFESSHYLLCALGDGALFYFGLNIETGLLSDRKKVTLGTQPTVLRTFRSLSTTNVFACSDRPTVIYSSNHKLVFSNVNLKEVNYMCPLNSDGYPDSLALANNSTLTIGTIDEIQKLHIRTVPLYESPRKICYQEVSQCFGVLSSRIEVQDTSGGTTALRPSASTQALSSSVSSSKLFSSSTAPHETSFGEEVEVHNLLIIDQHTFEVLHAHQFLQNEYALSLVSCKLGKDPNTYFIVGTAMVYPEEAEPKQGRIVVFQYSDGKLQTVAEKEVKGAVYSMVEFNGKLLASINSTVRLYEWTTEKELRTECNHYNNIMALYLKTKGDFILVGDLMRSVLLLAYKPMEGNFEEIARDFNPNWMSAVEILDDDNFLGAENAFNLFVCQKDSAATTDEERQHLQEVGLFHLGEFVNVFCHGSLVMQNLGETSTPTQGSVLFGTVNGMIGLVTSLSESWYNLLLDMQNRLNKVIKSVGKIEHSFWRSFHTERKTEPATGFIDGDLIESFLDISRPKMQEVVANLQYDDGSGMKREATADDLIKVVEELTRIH
Description: HiBiT detection system quantitatively measures total amounts of HiBiT-tagged proteins using a luminescent based method. MCF7 cells stably expressing HiBiT tagged target proteins were treated with heterobifunctional compounds at indicated concentrations for 16 hours, then lysed with Nano-Glo HiBiT Lytic detection reagents.

Row | Structure (SMILES) | % Cyclin D1 Relative Level (10 nM) (cyclin D1) | % Cyclin D1 Relative Level (100 nM) (cyclin D1) | CyclinD1 Degradation (40 nM) (CyclinD1 (CCND1)) | CyclinD1 Degradation (200 nM) (CyclinD1 (CCND1)) | % CDK4 Relative Level (10 nM) (CDK4; 10 nM) | % CDK4 Relative Level (100 nM) (CDK4; 100 nM)
1 | [2H]C([2H])([2H])Nc1ccc(C(=O)Nc2ccc(N(C)C)nn2)c(NC2CC3(C2)CN(C(=O)CN2CCC4(CCN(c5ccc(Nc6ncc7c(C)c(C(C)=O)c(=O)n(C8CCCC8)c7n6)nc5)C4)C2)C3)n1 (stereo not shown) [CPD-384, 2-((2-(2-(7-(6-((6-acetyl-8-cyclopentyl-5-methyl-7-oxo-7,8-dihydropyrido[2,3-d]pyrimidin-2-yl)amino)pyridin-3-yl)-2,7-diazaspiro[4.4]nonan-2-yl)acetyl)-2-azaspiro[3.3]heptan-6-yl)amino)-N-(6-(dimethylamino)pyridazin-3-yl)-6-((methyl-d3)amino)nicotinamide] | B (55%< Relative protein level ≤85%) | B (55%< Relative protein level ≤85%) | B (50%< degradation activity <80%) | A (degradation activity >80%) |  | 
2 | CC(=O)c1c(C)c2cnc(Nc3ccc(N4CCN(C5CCN(C(=O)[C@H]6CC[C@H](Nc7nc(NC(C)C)ccc7C(=O)Nc7ccc(N(C)C)nn7)CC6)C5)CC4)cn3)nc2n(C2CCCC2)c1=O (stereo partly shown) [CPD-399, 2-((−4-(3-(4-(6-((6-acetyl-8-cyclopentyl-5-methyl-7-oxo-7,8-dihydropyrido[2,3-d]pyrimidin-2-yl)amino)pyridin-3-yl)piperazin-1-yl)pyrrolidine-1-carbonyl)cyclohexyl)amino)-N-(6-(dimethylamino)pyridazin-3-yl)-6-(isopropylamino)nicotinamide] | A (Relative protein level ≤55%) | A (Relative protein level ≤55%) | B (50%< degradation activity <80%) | B (50%< degradation activity <80%) |  | 
3 | CC(=O)c1c(C)c2cnc(Nc3ccc(N4CCN(C5CCN(C(=O)C6CC(Nc7nc(NC(C)C)ccc7C(=O)Nc7ccc(N(C)C)nn7)C6)C5)CC4)cn3)nc2n(C2CCCC2)c1=O (stereo not shown) [CPD-402, 2-((3-(3-(4-(6-((6-acetyl-8-cyclopentyl-5-methyl-7-oxo-7,8-dihydropyrido[2,3-d]pyrimidin-2-yl)amino)pyridin-3-yl)piperazin-1-yl)pyrrolidine-1-carbonyl)cyclobutyl)amino)-N-(6-(dimethylamino)pyridazin-3-yl)-6-(isopropylamino)nicotinamide] | A (Relative protein level ≤55%) | A (Relative protein level ≤55%) | B (50%< degradation activity <80%) | B (50%< degradation activity <80%) |  | 
4 | CC(=O)c1c(C)c2cnc(Nc3ccc(N4CCN(C5CCN(C(=O)C6(O)CCC(Nc7nc(NC(C)C)ccc7C(=O)Nc7ccc(N(C)C)nn7)CC6)C5)CC4)cn3)nc2n(C2CCCC2)c1=O (stereo not drawn) [CPD-575, 2-((trans-4-(3-(4-(6-((6-acetyl-8-cyclopentyl-5-methyl-7-oxo-7,8-dihydropyrido[2,3-d]pyrimidin-2-yl)amino)pyridin-3-yl)piperazin-1-yl)pyrrolidine-1-carbonyl)-4-hydroxycyclohexyl)amino)-N-(6-(dimethylamino)pyridazin-3-yl)-6-(isopropylamino)nicotinamide] | C (Relative protein level >85%) | C (Relative protein level >85%) |  |  | C (Relative protein level >85%) | B (55%< Relative protein level ≤85%)
